Measurements reported in the supplement of paper PMC11369174, “Proteome-scale characterisation of motif-based interactome rewiring by disease mutations” (Molecular Systems Biology, 2024).
Some of the results follow. Read counts after selection give these values, which scatter widely.

Key:
Assay in all cases: mean normalised NGS count of phage-displayed peptide after selection on bait (% of reads); baits are purified protein domains named by gene / domain / UniProt id / residues; peptides come from disordered regions of human proteins; higher = stronger enrichment / binding
[1] = biological target: T1, PEX14_Pex14__O75381_16_84; conditions: replicate selections in which the peptide was seen: 6
T1 chain: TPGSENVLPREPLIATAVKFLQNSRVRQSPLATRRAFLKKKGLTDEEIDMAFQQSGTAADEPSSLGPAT

[2] = biological target: T2, PIK3R1_SH3_1_P27986_6_78
T2 chain: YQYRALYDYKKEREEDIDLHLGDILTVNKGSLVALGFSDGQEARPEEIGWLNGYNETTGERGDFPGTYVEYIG

[3] = biological target: PPIA_full-length__P62937_1_165, P62937
[4] = biological target: PTBP1_RRM_2_P26599_157_285
[5] = replicate selections in which the peptide was seen: 2
[6] = replicate selections in which the peptide was seen: 3
[7] = replicate selections in which the peptide was seen: 4
[8] = replicate selections in which the peptide was seen: 6
[9] = replicate selections in which the peptide was seen: 7
[10] = replicate selections in which the peptide was seen: 9
[11] = replicate selections in which the peptide was seen: 5

PPIA_full-length__P62937_1_165, P62937, sequence (P62937 whole entry, looked up): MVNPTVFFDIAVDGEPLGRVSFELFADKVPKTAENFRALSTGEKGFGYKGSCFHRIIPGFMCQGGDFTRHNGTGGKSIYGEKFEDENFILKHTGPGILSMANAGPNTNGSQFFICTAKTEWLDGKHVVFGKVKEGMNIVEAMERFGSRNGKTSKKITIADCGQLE

LHAVQGELQWAEELRD [CARD10 339-354 wt]
mean normalised NGS count [1]: 0.289

TELRAVMDWVWTDTTL [PIEZO2 2345-2360 wt]
mean normalised NGS count [1]: 4.14

EPTDPVLAREKLYPPS [TTN 14997-15012 mut Q8WZ42.S14999T]
mean normalised NGS count [2, 5]: 0.00275

QARETPSLPTPIPLQP [CNGB1 208-223 wt]
mean normalised NGS count [2, 6]: 0.0597

PPAVRPTPAAPLAEAK [AR 276-291 wt]
mean normalised NGS count [2, 7]: 0.0138

NGRLVPVPPTTPAPGV [ESPN 717-732 mut B1AK53.S719R]
mean normalised NGS count [2, 8]: 0.0364

EPSDPVLAREKLYPPL [TTN 14997-15012 mut Q8WZ42.S15012L]
mean normalised NGS count [2, 8]: 0.0141

REKLYPPSPPRWLEVI [TTN 15005-15020 wt]
mean normalised NGS count [2, 8]: 0.0513

QPLLNGRLVPVPPTTP [ESPN 713-728 mut B1AK53.S719R]
mean normalised NGS count [2, 9]: 0.0425

QQLPPRTPLDQPVDIG [LZTR1 633-648 mut Q8N653.P635L]
mean normalised NGS count [2, 9]: 0.396

RPTPAAPLAEAKGSLL [AR 280-295 wt]
mean normalised NGS count [2, 10]: 0.131

MAASREVPRPLSTLPM [SGCA 347-362 wt]
mean normalised NGS count [2, 10]: 23

PMPDQEELFGPVSLEQ [IRF6 258-273 wt]
mean normalised NGS count [3, 5]: 0.00404

PMPDQEELFGPVSLER [IRF6 258-273 mut O14896.Q273R]
mean normalised NGS count [3, 5]: 0.00404

PGMGPFMAGELMPREA [CLCN1 408-423 mut P35523.Q412P]
mean normalised NGS count [3, 5]: 0.00468

AASYGPYTRVQSMALP [FOXL2 252-267 wt]
mean normalised NGS count [3, 5]: 0.0159

DEVTAFLGEAGPFQRL [SLC22A5 5-20 mut O76082.W14C]
mean normalised NGS count [3, 6]: 0.015

PHPRPLQEVEMETYGA [CACNA1H 1943-1958 wt]
mean normalised NGS count [3, 6]: 0.0582

AQLHNEYGPMNMNMGM [ZIC2 208-223 mut O95409.Q213E]
mean normalised NGS count [3, 6]: 0.0108

NQYGPMNMNMGMNMAA [ZIC2 212-227 wt]
mean normalised NGS count [3, 6]: 0.00404

APIAFELVGPMQASQA [SLC16A2 432-447 wt]
mean normalised NGS count [3, 6]: 0.00807

LAGPAASYGPNTRVQS [FOXL2 248-263 mut P58012.Y258N]
mean normalised NGS count [3, 6]: 0.179

LAGPAASYGPYTRVQS [FOXL2 248-263 wt]
mean normalised NGS count [3, 6]: 0.012

TDNPIEARSKYDVPGP [TTN 14105-14120 mut Q8WZ42.V14109I]
mean normalised NGS count [3, 6]: 0.0322

AYEMVGPLAQDPQSPM [POMT2 724-739 mut Q9UKY4.G726E]
mean normalised NGS count [3, 6]: 0.00687

NEYGPMNMNMGMNMAA [ZIC2 212-227 mut O95409.Q213E]
mean normalised NGS count [3, 7]: 0.02

LAQAAPQTYAEYAISQ [ERCC1 52-67 mut P07992.S52L]
mean normalised NGS count [3, 7]: 0.513

SAQAAPQTYAEYAISQ [ERCC1 52-67 wt]
mean normalised NGS count [3, 7]: 0.0479

TDNPVEARSKYDVPGP [TTN 14105-14120 wt]
mean normalised NGS count [3, 7]: 0.029

PSYGPPNLGFVDSPSS [KMT2D 2297-2312 wt]
mean normalised NGS count [3, 11]: 0.0514

YDEVTAFLGEWGPLQR [SLC22A5 4-19 mut O76082.F17L]
mean normalised NGS count [3, 11]: 0.174

EKSDSHDIPWVSQYRL [COX15 208-223 mut Q7KZN9.R217W]
mean normalised NGS count [3, 11]: 0.195

YDEVTAFLGEWGPFQR [SLC22A5 4-19 wt]
mean normalised NGS count [3, 8]: 11.7

DEVTAFLGEWGPFQHL [SLC22A5 5-20 mut O76082.R19H]
mean normalised NGS count [3, 8]: 35.6

DEVTAFLGEWGPFQRL [SLC22A5 5-20 wt]
mean normalised NGS count [3, 8]: 4.63

DEVTAFLGEWGPLQRL [SLC22A5 5-20 mut O76082.F17L]
mean normalised NGS count [3, 8]: 2.67

AASYGPNTRVQSMALP [FOXL2 252-267 mut P58012.Y258N]
mean normalised NGS count [3, 8]: 0.479

SFFGPYPEVSPANGLN [PTCH1 1176-1191 wt]
mean normalised NGS count [3, 8]: 0.335

GLEEKSDSHDIPWVSQ [COX15 205-220 mut Q7KZN9.R217W]
mean normalised NGS count [3, 8]: 1

IEARSKYDVPGPPLNV [TTN 14109-14124 mut Q8WZ42.V14109I]
mean normalised NGS count [3, 8]: 4.96

VEARSKYDVPGPPLNV [TTN 14109-14124 wt]
mean normalised NGS count [3, 8]: 8.88

SEPIVARHPFDVPDAP [TTN 21091-21106 wt]
mean normalised NGS count [3, 8]: 1.47

HPLAYEMVGPLAQDPQ [POMT2 721-736 mut Q9UKY4.G726E]
mean normalised NGS count [3, 8]: 5.4

GLDGSYLLRYSESVPG [SH2D1A 24-39 mut O60880.D33Y]
mean normalised NGS count [4, 6]: 3.33

LASGSLLGSPDVEEAA [MUTYH 315-330 mut Q9UIF7.S321L]
mean normalised NGS count [4, 6]: 0.011

LLPLPEEPQLAPRSEG [KMT2D 725-740 wt]
mean normalised NGS count [4, 7]: 0.0119

LLPEPDQRKVPAEGGN [PRKN 341-356 mut O60260.T351P]
mean normalised NGS count [4, 7]: 0.0163

LLPEPDQRKVTAEGGN [PRKN 341-356 wt]
mean normalised NGS count [4, 7]: 0.254

LPLLLMPEEARLLAEI [TSEN34 48-63 wt]
mean normalised NGS count [4, 7]: 0.016

LLEAPTGLAEGSSLHT [SP110 120-135 wt]
mean normalised NGS count [4, 7]: 0.145

LLEAPTSLAEGSSLHT [SP110 120-135 mut Q9HB58.G126S]
mean normalised NGS count [4, 7]: 0.0753

SLLGSPDVEEAAPNTG [MUTYH 319-334 mut Q9UIF7.S321L]
mean normalised NGS count [4, 7]: 0.0107

DSLFFSNFSLLGAPVL [CFTR 426-441 mut P13569.T438A]
mean normalised NGS count [4, 8]: 14.7

DSLFFSNFSLLGTPVL [CFTR 426-441 wt]
mean normalised NGS count [4, 8]: 3

GGGLLKLPEDALVKAE [MSX1 120-135 mut P28360.V120G]
mean normalised NGS count [4, 8]: 0.235

HGLLQNPYAIPPLFPI [BRCA1 971-986 mut P38398.R979C]
mean normalised NGS count [4, 8]: 0.456

SHINAGLNMGILGSYD [TRAF7 366-381 mut Q6Q0C0.R371G]
mean normalised NGS count [4, 8]: 1.35
